Results reported in article PMC4336329 (PLoS ONE, 2015).
Hit rate of the full screen: of about 310,000 compounds, about 14,000 (4.5%) showed an effect of 50% or more. The effect is printed as a negative number. Some of the results follow.

Each compound was assayed against human ether-à-go-go-related gene (hERG) potassium channel (human, UniProt Q12809) (assay: primary screen, population patch clamp on CHO cells stably expressing hERG).
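Note: peak tail current of the secondary pulse compared with the same well before compound.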

Sequence of human ether-à-go-go-related gene (hERG) potassium channel (Q12809 whole entry, looked up): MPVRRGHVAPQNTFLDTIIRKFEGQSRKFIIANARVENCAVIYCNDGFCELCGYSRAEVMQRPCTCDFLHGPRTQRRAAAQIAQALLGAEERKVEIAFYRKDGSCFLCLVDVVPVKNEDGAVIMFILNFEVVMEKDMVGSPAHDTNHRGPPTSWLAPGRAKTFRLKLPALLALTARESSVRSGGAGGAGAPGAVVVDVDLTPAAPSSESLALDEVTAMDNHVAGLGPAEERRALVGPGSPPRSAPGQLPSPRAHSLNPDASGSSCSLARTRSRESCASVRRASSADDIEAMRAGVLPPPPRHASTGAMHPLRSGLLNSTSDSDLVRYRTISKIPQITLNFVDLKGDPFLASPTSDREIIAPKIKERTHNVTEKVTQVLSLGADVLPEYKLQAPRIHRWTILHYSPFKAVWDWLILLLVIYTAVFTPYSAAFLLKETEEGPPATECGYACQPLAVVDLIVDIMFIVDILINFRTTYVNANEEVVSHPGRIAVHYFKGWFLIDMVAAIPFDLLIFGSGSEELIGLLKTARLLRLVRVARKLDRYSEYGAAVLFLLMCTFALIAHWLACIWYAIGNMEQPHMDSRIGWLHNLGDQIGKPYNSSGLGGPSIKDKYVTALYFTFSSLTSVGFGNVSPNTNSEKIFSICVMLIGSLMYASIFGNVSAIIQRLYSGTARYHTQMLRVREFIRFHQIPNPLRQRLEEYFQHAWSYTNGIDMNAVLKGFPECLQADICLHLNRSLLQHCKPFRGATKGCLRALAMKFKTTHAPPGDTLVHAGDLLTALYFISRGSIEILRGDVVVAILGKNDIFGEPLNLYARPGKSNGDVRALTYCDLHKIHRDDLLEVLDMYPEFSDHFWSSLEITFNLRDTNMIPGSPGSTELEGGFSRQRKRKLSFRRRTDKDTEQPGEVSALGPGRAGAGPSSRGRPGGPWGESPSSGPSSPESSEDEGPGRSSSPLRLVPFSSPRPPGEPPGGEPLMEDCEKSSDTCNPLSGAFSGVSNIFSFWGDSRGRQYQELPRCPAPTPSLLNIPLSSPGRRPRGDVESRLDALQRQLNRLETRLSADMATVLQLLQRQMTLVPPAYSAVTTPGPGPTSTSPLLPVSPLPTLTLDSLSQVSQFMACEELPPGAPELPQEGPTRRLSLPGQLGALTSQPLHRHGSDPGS

SMILES	hERG current change (%, negative = inhibition) at 10uM [%]
CC(=O)NN1C(=O)c2ccc(Oc3ccc([N+](=O)[O-])cc3)cc2C1=O	-13
CCOC(=O)N/N=C\c1sccc1C	-2.3
Cc1ccc(C(=O)N/N=C\c2cc(Br)c(Br)o2)cn1	7.04
CCn1c2ccc(C)cc2c2nnc(NN)nc21	-22.6
O=C1CSC(c2ccc(Cl)c(Cl)c2)N1c1nccs1 (centres unmarked)	-1.93
COc1ccc(N/N=C/c2c(C(=O)O)ccc3ccccc23)cc1	-4.8
O=C(CCNC(=O)OCc1ccccc1)NC1CCCCC1	8.43
O=S(=O)([N-]c1nc2ccccc2nc1-[n+]1ccccc1)c1ccccc1	11.5
O=C(CCNC(=O)c1ccccc1)Nc1nc2ccccc2s1	-3.99
COc1ccc(OCc2nnc(SCC(N)=O)n2-c2ccccc2OC)cc1	-1.78
Cl.O=C(O)c1ccc(Nc2ncnc3scc(-c4ccccc4)c23)cc1	20.4
FC(F)(F)c1cc(-c2ccco2)nc(NCc2cccnc2)n1	1.09
COc1ccc(CN(C)C2CCN(C)CC2)cc1OC	21.8
O=C(CC1CCCCC1)NCC1CCCO1 (centres unmarked)	7.02
Cc1ccc(C(=O)N2CCOCC2)cc1Cl	2.91
Cc1cccc(C)c1NC(=O)CNC(=O)c1cccnc1	19.7
O=C(N/N=C/c1ccc2c(c1)OCO2)c1cccc2ccccc12	16
CCC(=O)N1CCC(C(N)=O)(N2CCCCC2)CC1	5.69
CC(=O)N(CCC(Cc1ccccc1)c1ccc2c(c1)OCO2)Cc1ccc(Cl)cc1 (centres unmarked)	-17.9
O=[N+]([O-])c1ccccc1/C=C/C=N/n1c(-c2ccco2)n[nH]c1=S	8.81
Cc1ccc(Nc2c(-c3ccc(N4CCOCC4)cc3)nc3ncccn23)cc1C	7.71
Cc1ccc(S(=O)(=O)N(C)C)cc1NC(=S)NC(=O)C12CC3CC(CC(C3)C1)C2	10.2
COc1cccc(CNC(=O)c2cc(S(=O)(=O)N3CCCCC3)c[nH]2)c1	21.2

SMILES	hERG current change (%, negative = inhibition) at 10uM [%]
Cc1c(Cl)cccc1NC(=O)CCC(=O)c1cccs1	10
COc1ccc(N2C(=O)CC(Sc3nc(C)cc(C)n3)C2=O)cc1OC (centres unmarked)	11.7
O=C(CSc1nccc(=O)[nH]1)Nc1ccc(N2CCOCC2)cc1	-1.11
CC(=O)C1=NN(c2ccccc2)C(c2ccc3c(c2)OCO3)N1c1ccccc1 (centres unmarked)	2.61
Nc1nc(C(F)(F)F)cc(=O)n1N	3.01
COC(=O)c1ccc(NC(=O)CN2CCN(c3cccc(Cl)c3)CC2)cc1	-0.592
O=C(NCc1ccc2c(c1)OCO2)C1CC(=O)N(CCc2ccc(F)cc2)C1 (centres unmarked)	-43.1
CCCCn1c(N)c(N(CC(C)C)C(=O)c2ccc(-c3ccc([N+](=O)[O-])cc3)o2)c(=O)[nH]c1=O	-16.3
Cc1cc(C)c(OCCNCc2ccccc2)c(C)c1.O=C(O)C(=O)O	-5.71
CNc1nc(SC)nc(N(C)C#N)n1	9.47
O=C(NCc1ccc2c(c1)OCO2)C1CC(=O)N(C2CCCCCC2)C1 (centres unmarked)	-11.3
O=[N+]([O-])c1ccc(-c2nc(Nc3ccc(O)cc3)c3ccccc3n2)cc1	13
Cc1cc(NS(=O)(=O)c2ccc(N3C(=O)C4C5C=CC(C5)C4C3=O)cc2)nc(C)n1 (centres unmarked)	16.8
O=C(CN(c1ccc(F)cc1)S(=O)(=O)c1ccc2c(c1)OCCO2)Nc1ccccc1	-23.6
COc1ccccc1NC(=O)CC12CC3CC(CC(Br)(C3)C1)C2	-4.01
CCc1cc2c(=O)c(-c3nc4ccccc4n3C)c(C)oc2c(CN(CC)CC)c1O	-4.52
Cc1cc(C(=O)N/N=C/c2ccc(OC(=O)c3ccccc3Br)cc2)n[nH]1	3.23
Cn1c(CNC(=O)c2ccco2)nnc1SCC(=O)Nc1cccc(Br)c1	-34.3
COc1ccccc1C(=O)Nc1ccc2c(c1)OCO2	-1.04
CC(C)(C)OC(=O)NCCCC[C@@H](C(=O)N1CCN(C(=O)OC(C)(C)C)CC1)n1cc(CCC(=O)O)nn1	3.83
COc1ccc(CCNCc2ccc(OC)c(OC)c2OC)cc1	-37.6
COC(=O)COc1cccc(NS(=O)(=O)c2ccc(NC(C)=O)cc2)c1	10.8
COc1ccc(C2CC(c3ccccc3)=NN2c2ccc(S(N)(=O)=O)cc2)cc1 (centres unmarked)	12.6

SMILES	hERG current change (%, negative = inhibition) at 10uM [%]
Cc1nn(C)cc1CNCc1ccc(OCC(O)CN(C)Cc2ccccc2)cc1 (centres unmarked)	5.56
C(=C\n1nnc2ccccc21)/c1ccccn1	-1.1
COc1ccccc1N1CCN(S(=O)(=O)CCNC(=O)C2CCCCC2)CC1	-20.7
COc1cccc(CN2CC(C(=O)NCCC3=CCCCC3)CCC2=O)c1 (centres unmarked)	-18.8
COc1cc(/C=C/C(=O)c2ccc([N+](=O)[O-])o2)ccc1O	5.03
Cc1ccsc1C(=O)Nc1ccc(F)c([N+](=O)[O-])c1	5.57
N=C1S/C(=C\c2ccccc2)C(=O)N1c1ccc(F)cc1	10.1
Cl.NCCc1ccn[nH]1	14.3
O=c1c2ccccc2nc(CSc2ncnc3nc[nH]c23)n1-c1ccccc1	19.4
O=C(O)CCC(=O)NNC(=O)CCC(=O)Nc1ccccc1	26
O=C(CCCC(=O)NC1CCCCC1)Nc1ccc([N+](=O)[O-])cc1	-36.9
CCCCOC(=O)Nc1nnc(SCCOc2ccc(C)cc2)s1	2.05
CC1CC(C)CN(C(=O)COC(=O)c2cc(S(=O)(=O)N3CCOCC3)ccc2F)C1 (centres unmarked)	-0.819
CC(C)Oc1cccc(C(=O)C2CCCN(C(=O)c3ccccn3)C2)c1 (centres unmarked)	9.46
CC1(c2ccc3ccccc3c2)NC(=O)N(CC(=O)N2CCCC(C(F)(F)F)C2)C1=O (centres unmarked)	-5.84
O=C(Cn1cnc2ccccc2c1=O)Nc1ccc(-c2nnc3n2CCCCC3)cc1	-4.47
CCc1nc2c(s1)CCc1onc(-c3ccc(Cl)cc3)c1-2	8.68
COc1ccc(C(O)Cn2ccsc2=NC(C)=O)cc1 (centres unmarked)	23.5
NC(=S)N/N=C/c1ccc(Br)o1	-1.41
COc1ccc(N2CCN(C(=O)CCC(=O)c3cc(C)sc3C)CC2)cc1	-24.8
CCCCNC(=O)[C@@H]1CCCN1S(=O)(=O)c1cccc2cccnc12	0.308
Cc1nc2c(C)cccc2c2c1CCN2c1ccccc1F	-62.4
Cc1cc2c(c(=O)n1CCCn1ccnc1)C(c1ccco1)C(C#N)=C(N)O2 (centres unmarked)	-3.23

SMILES	hERG current change (%, negative = inhibition) at 10uM [%]
COc1ccc(C2=NOC(Cn3nc(C(=O)NCC4CC4)cc3-c3ccccc3)C2)cc1 (centres unmarked)	-65
Cc1ccc(N2C(=O)CN(Cc3cccs3)C2=S)cc1C	-3.2
O=C1Nc2c(Br)cc(Br)cc2C1(O)N1CCOCC1 (centres unmarked)	2.85
CNCCCOc1ccc(C)cc1OC.O=C(O)C(=O)O	7.85
Cc1c(C(=O)O)oc2ccc(S(=O)(=O)N3CCCC3)cc12	32
C=C1C(=O)C=C2CN(C(=O)c3ccccc3)[C@@](Cc3ccc(F)cc3)(C(=O)OC)[C@@H]12	-3.22
Cc1csc(NC(=O)CCC(=O)c2cccs2)n1	-13.1
Cc1ccc(N2C(=O)N3[C@H]4c5ccccc5OC[C@@H]4[C@@H](c4ccccc4)[C@@]3(C)C2=O)cc1	12.8
Cc1cccc(C(=O)NCCNC(=O)c2cnccn2)c1	12.8
Cc1ccc(NC(=O)COc2coc(CN3CCc4ccccc4C3)cc2=O)cc1Cl	3.84
O=C(Cc1n[nH]c(=O)c2ccccc12)Nc1cccc(S(=O)(=O)N2CCCC2)c1	-5.36
O=S(=O)(Nc1cccc(CCc2ccccn2)c1)c1cc(Cl)ccc1Cl	-6.71
CCC(C)NC(=O)c1ccccc1NC(=O)C1COc2ccccc2O1 (centres unmarked)	6.82
CC(C(=O)Nc1ccc(C#N)cc1)N(C)Cc1cccs1 (centres unmarked)	-56.7
O=C(c1ccc(-n2cccn2)cc1)N1CCN(c2ncccc2C(F)(F)F)CC1	-60.4
O=C(OCc1cc2ccccc2[nH]c1=O)C1CCCCC1	4.18
COc1ccc(C2(C(=O)NCc3ccccc3Cl)CCOCC2)cc1OC	-8.24
COc1ccc(OC)c(S(=O)(=O)N2CCC(C(=O)NCCc3ccc(OC)c(OC)c3)CC2)c1	-4.02
COC(=O)C1=C(C(=O)OC)[C@@H]2N(C)c3ccc(OC)cc3[C@@]23C[C@@H](C(=O)OC)N(C(=O)CC(C)C)C3=N1	-14.9
CCOC(=O)C1=C(c2ccccc2)NC(=S)NC1c1ccc(Cl)cc1 (centres unmarked)	0.162
